Test results as given in the RNAGym collection of RNA variant scans (doi:10.1093/nar/gkz1192).
The source gives no read counts; variants with many changes may rest on few reads.

B1: CPEB3 Ribozyme (parent)
chain: UAACAGGGGGCCACAGCAGAAGCGUUCACGUCGCAGCCCCUGUCAGAUUCUGGUGAAUCUGCGAAUUCUGCUGUAUAUCUC

Variants of: B1
Experiment: self-cleavage, relative activity (ratio to wild type); higher = more cleavage; in vitro, sequencing
Procedure, shortened: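 Relative activity compares each variant's cleaved/total read fraction with that of the unmutated ribozyme. To get these fractions, barcoded CPEB3 ribozyme libraries from rounds of error-prone PCR were transcribed with T7 RNA polymerase for 5 hours at 37°C and then given 15 min of DNase I treatment before EDTA was added. The RNAs were reverse transcribed with template switching and sequenced on Illumina, and DNA sequencing linked barcodes to variants. A minimum of 5 reads applied, and three batches were averaged.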

| Variant | self-cleavage |
| --- | --- |
| G42A U58C U80C | 0.07 |
| G42A U58G U60C U67C | 0.12 |
| G42A U60C A75G | 0.06 |
| G42A U72A G73A | 0.08 |
| G42A U72C U76A | 0.32 |
| G42A U72G A77G | 0.19 |
| G42C A45G A64G U66C U72C U78C | 0.1 |
| G42C A47G C50A A57U | 0.16 |
| G42C A57G A64U U78C | 0.07 |
| G42C U43A U49C | 0.43 |
| G42C U58C G63A | 0.18 |
| G42C U60C U66C | 0.12 |
| G42C U69C U80C | 0.13 |
| G42U U43A U67A | 0.15 |
| G42U U43C U72A | 0.15 |
| G42U U48C U49C U58A C59U | 0.1 |
| G42U U49C G53A C59U A64G | 0.12 |
| G42U U49C U60C G63A U69C | 0.07 |
| G42U U51C A64G U66C | 0.1 |
| G42U U58C A64G U67C | 0.08 |
| G42U U69A U74C | 0.21 |
| G42U U72A U76A | 0.03 |
| G42U U74C A75G | 0.28 |
| U43A A45C G46A A47U U54C U72A | 0.08 |

| Variant | self-cleavage |
| --- | --- |
| U43A A45G A56G | 0.6 |
| U43A A45G A56U A64G U72A | 0.13 |
| U43A A45G A56U U69C | 0.14 |
| U43A A45G A64G | 0.41 |
| U43A A45G U54C A64G | 0.57 |
| U43A A45G U72C | 0.95 |
| U43A A45U A56G | 0.27 |
| U43A A45U U49A U60C U72A | 0.14 |
| U43A A45U U51A | 0.35 |
| U43A A47G A57G C62U | 0.13 |
| U43A A47G G61C C62U | 0.13 |
| U43A A47G U48C | 0.28 |
| U43A A47G U60C U67A U69A | 0.32 |
| U43A A47G U60C U72C | 0.54 |
| U43A A47G U80C | 1.08 |
| U43A A47U U66C | 0.15 |
| U43A A56G A64G U69A U74C | 0.28 |
| U43A A56G U66A U69C U74A | 0.16 |
| U43A A56G U67C C68U A75G | 0.21 |
| U43A A56U A64G A65G | 0.09 |
| U43A A56U U60C | 0.39 |
| U43A A56U U60C A64G | 0.14 |
| U43A A56U U66C | 0.15 |
| U43A A56U U66C U72C | 0.27 |

| Variant | self-cleavage |
| --- | --- |
| U43A A57G A65G | 0.55 |
| U43A A57G A65G U80A | 0.69 |
| U43A A57G A75G U78C | 0.44 |
| U43A A57G U60C A64G U66C C71A | 0.31 |
| U43A A57G U67A A77U | 0.92 |
| U43A A65G U66C | 0.32 |
| U43A C44A U54C U60C | 0.22 |
| U43A C44A U76C U80A | 0.78 |
| U43A C44U G52A | 1.03 |
| U43A C50U G53A | 1.36 |
| U43A C62A A64C U80A | 0.16 |
| U43A C62U C68U U74C | 0.22 |
| U43A C68U U74A | 1.25 |
| U43A C71U A77U | 0.66 |
| U43A G46A C62U | 0.17 |
| U43A G46A U54A | 0.18 |
| U43A G46C U72A U76C | 0.43 |
| U43A G46U U72C | 0.36 |
| U43A G52A U69A U80A | 0.47 |
| U43A G52U U69C | 0.74 |
| U43A G53A U76C | 1.11 |
| U43A G53C U69G U72G | 0.3 |
| U43A G63C U78G | 1.15 |
| U43A U48A U51C U80A | 0.67 |

| Variant | self-cleavage |
| --- | --- |
| U43A U48C G55U U69A U72C | 0.2 |
| U43A U48C U51C G52A A65G U69A | 0.32 |
| U43A U49C A56G U66C U69C | 0.17 |
| U43A U49C G52C | 0.5 |
| U43A U51A U58C | 0.44 |
| U43A U51A U72A | 0.84 |
| U43A U51C A57G A75U U76C | 1.18 |
| U43A U51C A57U | 0.43 |
| U43A U51C A64U U78C | 0.38 |
| U43A U51C U54G | 0.91 |
| U43A U51C U67C | 0.3 |
| U43A U51C U72C | 1.12 |
| U43A U51C U72G | 0.99 |
| U43A U54A C62U | 0.1 |
| U43A U54A U66C | 0.69 |
| U43A U54C A56U U74A | 1.05 |
| U43A U54C A64G U69A | 0.5 |
| U43A U54C G73U | 1.25 |
| U43A U54C U60C | 0.4 |
| U43A U54C U72C | 1.27 |
| U43A U54G A56G U60C | 0.32 |
| U43A U54G U60C U76A | 0.18 |
| U43A U54G U80C | 0.64 |
| U43A U58C U76C U78C | 0.48 |

| Variant | self-cleavage |
| --- | --- |
| U43A U60A A65U | 0.13 |
| U43A U60A U67C | 0.29 |
| U43A U60C A64G U69A | 0.22 |
| U43A U60C G63U | 0.93 |
| U43A U67C U76A U78C | 0.33 |
| U43A U69A A75G | 0.65 |
| U43A U69G C81A | 0.87 |
| U43A U72A U78C U80A | 0.73 |
| U43A U72C A75G | 1.25 |
| U43A U72C U74A | 1.27 |
| U43A U72G U74C | 1.19 |
| U43A U74C A75U | 1.22 |
| U43A U76C U78C | 1.09 |
| U43C A45C A75U | 0.23 |
| U43C A45G A56G U67C | 0.1 |
| U43C A45G A56U U78C | 0.39 |
| U43C A45G A57G U69A U72C U78C | 0.09 |
| U43C A45G A75G | 0.16 |
| U43C A45G G46A U69C | 0.02 |
| U43C A45G G70A | 0.13 |
| U43C A45G U48C | 0.08 |
| U43C A45G U48C A56U | 0.16 |
| U43C A45G U49C | 0.23 |
| U43C A45G U49G G55A | 0.18 |

| Variant | self-cleavage |
| --- | --- |
| U43C A45G U54A A56G U60C | 0.74 |
| U43C A45G U66C U67C | 0.02 |
| U43C A45G U66C U72C | 0.1 |
| U43C A45G U74A A75G | 0.54 |
| U43C A45G U78C | 0.51 |
| U43C A45G U80C | 0.74 |
| U43C A45U A47G | 0.14 |
| U43C A45U A47G U48A C59U | 0.16 |
| U43C A45U A56U U76C U78A | 0.04 |
| U43C A45U A64G U69A | 0.1 |
| U43C A45U U48C A56U G70A | 0.05 |
| U43C A45U U48C C59U A65G A75G | 0.02 |
| U43C A45U U49A | 0.29 |
| U43C A45U U49C A56G | 0.29 |
| U43C A45U U54A A75U | 0.15 |
| U43C A45U U54A U74A A75G | 0.24 |
| U43C A45U U54C | 0.18 |
| U43C A45U U60A A75U | 0.88 |
| U43C A45U U60C U72C | 0.28 |
| U43C A45U U66C U78C | 0.45 |
| U43C A45U U67A U74C | 0.1 |
| U43C A45U U78C | 0.11 |
| U43C A47G A57G | 0.43 |
| U43C A47G A64G U72C | 0.37 |

| Variant | self-cleavage |
| --- | --- |
| U43C A47G C71A A75G U78C | 0.1 |
| U43C A47G C71A C79U | 0.25 |
| U43C A47G U51A U78A U80C | 0.35 |
| U43C A47G U51C | 0.62 |
| U43C A47G U51C U54C U80A | 0.47 |
| U43C A47G U54C U58C | 0.88 |
| U43C A47G U54G | 0.29 |
| U43C A47G U72A | 0.2 |
| U43C A47G U76C | 0.5 |
| U43C A47U U49C | 0.32 |
| U43C A56C U67C U78C | 0.18 |
| U43C A56G A57G | 0.17 |
| U43C A56G A64G A77G U80C | 0.11 |
| U43C A56G A65G | 0.12 |
| U43C A56G C68G U72C U76G | 0.07 |
| U43C A56G U58A | 0.15 |
| U43C A56G U60A | 0.21 |
| U43C A56G U60G A64G | 0.1 |
| U43C A56G U66C U80C | 0.11 |
| U43C A56G U69C U80C | 0.15 |
| U43C A56G U72A U74C | 0.24 |
| U43C A56G U72G | 0.24 |
| U43C A56G U80C | 0.32 |
